Among all 46,000 compounds or so, about 60 (0.1%) were called active. Roughly 3% stayed inconclusive and do not appear here. Calls follow the shape of the dose curve; as a rule, active = well fitted inhibition curve with a large enough effect; inconclusive = small, poorly fitted or top-dose-only effect; inactive = no such curve, though single readings can be large or run the other way. This is one part of the list.
Experiment: Primary qHTS assay for Inhibitors of ovarian cancer metastasis using an organotypic tumor microenvironment (TME) model. Also: nearly all actives have a fitted effect of over 65% in size.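 As to Potency: count of GFP cancer cells still attached after washing and fixation.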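 As to activity change, negative = inhibition: plate controls were DMSO wells for no effect and tomatine positive control wells for full effect.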
Settings: SKOV3ip1-GFP adhesion/invasion on 3D omental model, fluorescence; series mostly up to 45.8 µM; activity change, negative = inhibition: at the top concentration
Outline: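 Primary human omental fibroblast/mesothelial 3D culture pre-formed 48 h. SKOV3ip1-GFP cells added with compounds (0.36-46 umol/L), incubated 2 h RT/16 h 37 C, fixed; GFP cells quantified at 488/509 nm.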
Potency is read from the fitted curve at half-maximal effect.

SMILES | outcome | activity change, negative = inhibition | Potency
CCCNC(=O)c1cnc2c(-c3ccc(OCC)c(OCC)c3)c(C)nn2c1-c1ccccc1 | inactive | – | –
CC(C)Oc1ccc(C(=O)Nc2nonc2-c2ccc(OC(C)C)cc2)cc1 | – | inactive: -7.43% | –
COC(=O)CCN(C(=O)C1CCN(S(=O)(=O)c2c(C)noc2/C=C/c2ccccc2F)CC1)c1ccccc1 | – | inactive: -9.73% | –
CCc1cccc(NC(=O)Cn2nc3c4cc(F)ccc4n(Cc4cccc(C)c4)cc-3c2=O)c1 | – | inactive: -9.02% | –
CCc1ccccc1N1C(=O)N(CC(=O)c2ccc(OC)cc2)c2ccccc2S1(=O)=O | – | inactive: 11% | –
Clc1cccc(CSc2nnc(C3CCNCC3)o2)c1 | – | inactive: -23.7% | –
CC(C)n1c(=N)c(C(=O)NC2CCCCC2)cc2c(=O)n3ccccc3nc21 | – | inactive: 9.25% | –
COc1ccc(NC(=O)C(=O)NCc2ccco2)cc1 | – | inactive: -4.16% | –
CCN(CCCNC(=O)Cn1ncc2c([nH]c3ccc(C)cc32)c1=O)Cc1ccccc1 | – | inactive: 2.08% | –
CC(N[C@H]1CCCC[C@H]1NC(=O)c1ccc(Cl)cc1)c1cccc2ccccc12 (stereo not given in full) | – | inactive: -11.8% | –
CCSc1nn(CC(=O)Nc2cccc(Cl)c2)c(N)c1S(=O)(=O)c1ccc(OC)cc1 | – | inactive: -18.6% | –
COc1ccc(OC)c(-c2noc(N3CCN(c4cccc(C)c4C)CC3)n2)c1 | – | inactive: -3.89% | –
COc1cccc(CN(C(=O)c2cccc(C)c2)C2CCS(=O)(=O)C2)c1 (stereo not given) | – | inactive: -4.62% | –
CC(=O)c1ccc(NC(=O)Cn2nc(C(F)(F)F)c3c2CCCC3)cc1 | – | inactive: -10.4% | –
CCCN(CCC)C(=O)Cn1c(=O)n(Cc2ccc(C(=O)NCCc3ccc(Cl)cc3)cc2)c(=O)c2ccccc21 | – | inactive: 40.6% | –
COc1ccccc1Cn1cc(C(=O)c2ccc(C)cc2)c(=O)c2cc(F)cc(F)c21 | – | inactive: 1.95% | –
CC(C)CC(=O)Nc1nnc(S(=O)(=O)N2CCc3ccccc32)s1 | – | inactive: 3.49% | –
Cc1ccc(-n2nc3c(=O)n(CCCC(=O)NC(C)c4ccccc4)nc(C)c3c2C)cc1 (stereo not given) | – | inactive: 0.536% | –
CCOC(=O)/C(C#N)=C/c1ccc(-c2ccc(C)cc2)o1 | inactive | – | –
Cc1ccc2oc(C(=O)Nc3sc4c(c3C(=O)NCc3cccnc3)CCCC4)cc(=O)c2c1 | – | inactive: -8.86% | –
COC(=O)c1ccccc1NC(=O)C1=C(C)C(=O)OC12CCC(C)CC2 (stereo not given) | – | inactive: -6.76% | –
COC(=O)CC1Oc2ccc(C)cc2-n2cc(-c3ccc(C)cc3)nc21 (stereo not given) | – | inactive: 5.36% | –
Cc1ccc(CSc2oc(-c3cccs3)nc2S(=O)(=O)c2ccc(C)cc2)cc1 | – | inactive: 2.23% | –

SMILES | outcome | activity change, negative = inhibition | Potency
COc1ccc(-c2nc(SCC(=O)Nc3ccc4c(c3)OCCO4)c(-c3ccccc3)[nH]2)cc1 | – | inactive: -23.2% | –
CCc1ccc(NC(=O)Cn2c(=O)n(-c3cc(C)cc(C)c3)c(=O)c3oc4ccccc4c32)cc1 | – | inactive: -3.87% | –
CCOc1ccc(CCNC(=O)CSc2cc(=O)n(C)c3ccc(Cl)cc23)cc1OCC | inactive | – | –
COc1ccccc1NS(=O)(=O)c1cc2c(cc1Cl)NC(=O)CO2 | – | inactive: -8.27% | –
CN(C)S(=O)(=O)c1ccc(C(=O)Nc2ccc(-n3nncc3-c3ccccc3)cc2)cc1 | – | inactive: -4.07% | –
COc1ccccc1N1CCN(C(=O)Cn2ncc3c(=O)oc4ccc(C)cc4c32)CC1 | inactive | – | –
Cc1cccc(N2CCN(C(=O)CCSCc3ccccc3F)CC2)c1C | inactive | – | –
CCN1C(=O)C2(c3ccccc31)c1c(oc3ccc(F)cc3c1=O)C(=O)N2CCCOC (stereo not given) | inactive | – | –
Cc1ccc(NC(=O)CSc2ccc(-c3sc(-c4ccccc4)nc3C)nn2)cc1F | inactive | – | –
CC(C)Oc1ccc(CNC(=O)c2ccc(Cn3c(=O)c4cccn4c4cccnc43)cc2)cc1 | inactive | – | –
CCCc1cnc2c(c1SCc1ccc(C(F)(F)F)cc1)c(=O)n(C)c(=O)n2C | – | inactive: 1.59% | –
CCN1CCN(c2cc(C)c3cc(NC(=O)c4cc(Cl)ccc4OC)ccc3n2)CC1 | – | – | active: 3.55 µM
Cc1nn2c(=O)cc(COC(=O)CNC(=O)c3ccc(F)cc3)nc2s1 | – | inactive: 4.53% | –
COc1ccc(C2=NC(C)(C)N(CC(=O)Nc3ccc(F)c(F)c3)C2=O)cc1 | – | inactive: -8.54% | –
Cc1ccc(N(Cc2cccs2)C(=O)COc2cccc(C)c2)cc1 | inactive | – | –
COc1ccc(-c2nsc(NC(=O)c3oc4cc(C)c(C)cc4c3C)n2)cc1 | – | inactive: -3.48% | –
Cc1cccc(CNC(=O)c2cnc3sc(N4CCCCCC4)nn3c2=O)c1 | inactive | – | –
CC(=O)c1ccc(NC(=O)Cn2c(=O)n(Cc3ccco3)c(=O)c3sc4ccccc4c32)cc1 | inactive | – | –
Cc1ccc(NC(=O)c2c(C)nc3sc(C(=O)Nc4ccc(F)cc4)c(N)c3c2-c2ccccc2Cl)c(C)c1 | – | inactive: -15.8% | –
COc1cccc(OC)c1C(=O)Nc1ccc(S(=O)(=O)Nc2nccc(C)n2)cc1 | inactive | – | –
Cc1ccc(-n2ncc(C(=O)NCCCN3CCCCC3)c2C2CCN(C(=O)OC(C)(C)C)CC2)cc1 | inactive | – | –
COc1ccccc1C(=O)Nc1nnc(S(=O)(=O)N(C)c2ccc(Cl)cc2)s1 | inactive | – | –
